Test results: patent US20260055180A1

Key:
[1] = biological target: hFOLR1 (human) (UniProt P15328); assay: BLI (Octet), captured on AHC sensor, antigen in solution
[2] = biological target: hFOLR1 (human) (UniProt P15328); assay: ELISA

Sequence of UniProt P15328 (P15328 25-234 limits assumed): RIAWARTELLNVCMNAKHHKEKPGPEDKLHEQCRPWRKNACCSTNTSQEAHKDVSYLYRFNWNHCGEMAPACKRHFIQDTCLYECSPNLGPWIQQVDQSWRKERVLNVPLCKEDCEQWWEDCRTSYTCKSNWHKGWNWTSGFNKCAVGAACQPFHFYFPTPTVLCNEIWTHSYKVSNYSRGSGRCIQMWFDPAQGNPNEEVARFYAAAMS

Row | Kd [1] [nM] | koff [1] [s⁻¹] | kon [1] [M⁻¹ s⁻¹] | EC50 [2] [nM] | Binder
1 | 2.68 | 0.00102 | 381000 | 0.14 | Anti-FOLR1x2; Anti-DLL3x2; (GGS)3 (bispecific antibody, part only; not given: hinge or second linker, not shown: small tags and cut ends) chain, part: QVQLVESGGGLVQPGGSLRLSCAASGFTVSNSVMAWYRQTPGNEREFVAIINSIGITNYADSVKGRFTISRDNSKNTLYLQMNSLRAEDTAVYVCNRNFDRIYWGQGTLVTVSSGGSGGSGGSEVQLVESGGGEVQPGGSLRLSCAASGSIFSINAMGWYRQAPGKQRELVAGFTGDTNTIYAESVKGRFTISRDNAKNTVYLQMSSLRAEDTAVYYCAADVQLFSRDYEFYWGQGTLVTVK[left out - human IgG1 Fc]
2 | 2.52 | 0.00087 | 345000 | 0.11 | Anti-FOLR1x4 (GGS)3 (Fc fusion, part only; not given: hinge or second linker, not shown: small tags and cut ends) chain, part: QVQLVESGGGLVQPGGSLRLSCAASGFTVSNSVMAWYRQTPGNEREFVAIINSIGITNYADSVKGRFTISRDNSKNTLYLQMNSLRAEDTAVYVCNRNFDRIYWGQGTLVTVSSGGSGGSGGSQVQLVESGGGLVQPGGSLRLSCAASGFTVSNSVMAWYRQTPGNEREFVAIINSIGITNYADSVKGRFTISRDNSKNTLYLQMNSLRAEDTAVYVCNRNFDRIYWGQGTLVTVSS[left out - human IgG1 Fc]
